Measurements published in the supplement of paper PMC11876631.
Positions count from the first letter of the chain named. In names and notes the source's numbering stands. ± gives the standard deviation of the averaged measurements. Laboratory Escherichia coli strains with one amino-acid change in an essential protein, pooled on minimal glucose agar with carbenicillin or gentamicin at twice the control MIC (plus kanamycin and chloramphenicol for the plasmids), 48 h. Fold change of barcode share against drug-free plates; higher = less susceptible. Active = above 20 in both replicates (the paper's putatively resistant). '<' = one read or none on drug, '>' = one read or none on a drug-free plate. Shares are relative, so most strains fall below 1 when a few take over. Listed are strains with at least 15 reads on both drug-free plates, and hits; most hits rest on fewer reference reads. Replicate rank correlation about 0.5. Edits are read from barcodes.

B1: der M88A (protein)
chain: MVPVVALVGRPNVGKSTLFNRLTRTRDALVADFPGLTRDRKYGRAEIEGREFICIDTGGIDGTEDGVETRMAEQSLLAIEEADVVLFAVDARAGLMPADEAIAKHLRSREKPTFLVANKTDGLDPDQAVVDFYSLGLGEIYPIAASHGRGVLSLLEHVLLPWMEDLAPQEEVDEDAEYWAQFEAEENGEEEEEDDFDPQSLPIKLAIVGRPNVGKSTLTNRILGEERVVVYDMPGTTRDSIYIPMERDGREYVLIDTAGVRKRGKITDAVEKFSVIKTLQAIEDANVVMLVIDAREGISDQDLSLLGFILNSGRSLVIVVNKWDGLSQEVKEQVKETLDFRLGFIDFARVHFISALHGSGVGNLFESVREAYDSSTRRVGTSMLTRIMTMAVEDHQPPLVRGRRVKLKYAHAGGYNPPIVVIHGNQVKDLPDSYKRYLMNYFRKSLDVMGSPIRIQFKEGENPYANKRNTLTPTQMRKRKRLMKHIKKNK
B2: der M88Q (protein)
chain: B1 chain with A88Q
B3: dfp V325A (protein)
chain: MSLAGKKIVLGVSGGIAAYKTPELVRRLRDRGADVRVAMTEAAKAFITPLSLQAVSGYPVSDSLLDPAAEAAMGHIELGKWADLVILAPATADLIARVAAGMANDLVSTICLATPAPVAVLPAMNQQMYRAAATQHNLEVLASRGLLIWGPDSGSQACGDIGPGRMLDPLTIVDMAVAHFSPVNDLKHLNIMITAGPTREPLDPVRYISNHSSGKMGFAIAAAAARRGANVTLVSGPVSLPTPPFVKRVDVMTALEMEAAVNASVQQQNIFIGCAAVADYRAATVAPEKIKKQATQGDELTIKMVKNPDIVAGVAALKDHRPYVAGFAAETNNVEEYARQKRIRKNLDLICANDVSQPTQGFNSDNNALHLFWQDGDKVLPLERKELLGQLLLDEIVTRYDEKNRR
B4: dfp V325D (protein)
chain: B3 chain with A325D
B5: dfp V311D (protein)
chain: B3 chain with V311D, A325V
B6: dfp V311W (protein)
chain: B3 chain with V311W, A325V
B7: dfp V311Q (protein)
chain: B3 chain with V311Q, A325V
B8: dfp V325W (protein)
chain: B3 chain with A325W
B9: dfp V311A (protein)
chain: B3 chain with V311A, A325V
B10: dfp L347A (protein)
chain: B3 chain with A325V, L347A
B11: dfp V325P (protein)
chain: B3 chain with A325P
B12: acpS I124W (protein)
chain: MAILGLGTDIVEIARIEAVIARSGDRLARRVLSDNEWAIWKTHHQPVRFLAKRFAVKEAAAKAFGTGIRNGLAFNQFEVFNDELGKPRLRLWGEALKLAEKLGVANMHVTLADERHYACATVIWES

Target: Escherichia coli (laboratory strain)
Experiment: barcode share on antibiotic plates over drug-free plates; higher = less susceptible
Description: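 A pool of E. coli strains, each edited to carry one amino-acid change in an essential protein, was grown for 48 h on minimal glucose agar with or without antibiotic; strain barcodes were sequenced; mean of two replicates.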

[1] = antibiotic: carbenicillin, 2× MIC (3.1 µg/mL)
[2] = antibiotic: gentamicin, 2× MIC (MIC 0.45 µg/mL)

Protein | fold change of barcode share [1] | fold change of barcode share [2]
B1 | 0.502 ± 0.37 | 0.0102 ± 0.0061
B2 | 0.254 ± 0.061 | 0.00749 ± 0.0079
B3 | 0.626 ± 0.56 | 0.00707 ± 0.0016
B4 | 0.477 ± 0.26 | 0.164 ± 0.22
B5 | 0.176 ± 0.13 | < 0.0142
B6 | 0.308 ± 0.04 | < 0.00854
B7 | 0.287 ± 0.093 | 0.0225 ± 0.024
B8 | 1.38 ± 0.98 | < 0.0206
B9 | 0.249 ± 0.087 | < 0.00668
B10 | 0.268 ± 0.1 | < 0.00543
B11 | 0.344 ± 0.18 | < 0.0143
B12 | 0.285 ± 0.027 | 0.0166 ± 0.015
